Experimental findings from ChEMBL document CHEMBL4888484, “Replenishing the malaria drug discovery pipeline: Screening and hit evaluation of the MMV Hit Generation Library 1 (HGL1) against asexual blood stage Plasmodium falciparum ,using a nano luciferase reporter read-out” (2022) are described below.

Usually % Inhibition stands for the relative decrease from the control value, in per cent.

The campaign covered roughly 150,000 compounds. About 540 (0.36%) showed an effect of 50% or more. The list shows a part of the results.

For this assay, the system named is Plasmodium falciparum. The experiment in a line: Primary screen in NF54 nanoGlo assay, in single point, at 2uM, 72h; a lower Z score goes with more inhibition. It counts as functional, Erythrocyte. To be noted: timepoint 72 hour.
Turning to `CCOC1CC(O)C12CCN(C(=O)NC1Cc3ccccc3C1)CC2` (stereo not drawn), the “% Inhibition” value was -6% and the Z score is recorded as 0.59.
For `C[C@H](NC(=O)CN1CCCN(C)CC1)c1nc(-c2ccccn2)no1`, the “% Inhibition” value is reported as -5% and the Z score is 0.78.
With `C[C@H]1c2ccsc2CCN1Cc1ccc(-n2ccnc2)cc1`, the “% Inhibition” value is -8% and the Z score was found to be 0.75.
The like results for `O=C(Nc1cnc(CC2CC2)nc1)Nc1ccn(C2CCOCC2)n1` were, in that order, -3% and 0.64.
Turning to `COc1ccc(CN2C[C@H](C(=O)NCc3ccncc3)C3(CCOCC3)C2)cc1`, the “% Inhibition” value is on record as -4% and the Z score worked out at 0.74.
Consider `O=C([C@@H]1CN(S(=O)(=O)c2ccccc2Cl)CCO1)N1CCc2ccc(Cl)cc2C1`, for which the “% Inhibition” value was -20% and the Z score came out at 2.36.
The like results for `CCC(C)C1NC2(CCN(S(=O)(=O)c3ccc(C)cc3)CC2)N(CCCOC)C1=O` (stereo not drawn) were, in that order, -10% and 0.96.
Turning to `CCOC(=O)c1c(C)c(CCC(=O)NC(C)C)n(CC)c1C`, the “% Inhibition” value is given as -1% and the Z score is reported as 0.14.
With `NC1=N[C@H](c2ccccc2)C=C(c2ccccc2)O1`, the “% Inhibition” value came out at 33% and the Z score is recorded as -3.73.
For `COC1([C@H](C)NC(=O)c2cc3c(C)cccc3o2)CCOCC1`, in that order: -10% and 1.12.
As to `CC(C)c1nc(-c2ccc[nH]2)n(Cc2ccc(F)cc2)n1`, the “% Inhibition” value is recorded as -3% and the Z score worked out at 0.43.
The like results for `CCc1ncsc1C(=O)NC1CCC(S(C)(=O)=O)CC1` (stereo not drawn) were, in that order, -12% and 1.56.
With `COc1cccc(S(=O)(=O)N2CCC(c3ccc(C)cc3)C2C(=O)O)c1F` (stereo not drawn), the “% Inhibition” value is given as -6% and the Z score amounted to 0.81.
Consider `CCOc1ccccc1CN(CC)CCn1cncn1`, for which the “% Inhibition” value was -3% and the Z score is given as 0.63.
For `CC(=O)c1sc(-c2ccc(N3CCCC3)nc2)nc1C`, in that order: -6% and 1.16.
The like results for `CCN(CC)c1nc(-c2cccc(C)c2)nnc1C` were, in that order, -4% and 0.81.
The like results for `CCOC1CC(N(C)C(=O)C[C@H]2CCCC(=O)N2)C1` (stereo partly drawn) were, in that order, -3% and 0.34.
For the molecule `Cc1n[nH]cc1C1CCN(c2cc(N3CCCC[C@@H]3CO)ncn2)CC1`, the “% Inhibition” value was 6% and the Z score was -1.08.
As for `Cn1c(=O)c2c(-c3ccc(Br)cc3)n(-c3cccc4cccnc34)cc2n(C)c1=O`, the “% Inhibition” value is recorded as -4% and the Z score is on record as 0.72.
For the molecule `CC(=O)Nc1ccc(C)cc1S(=O)(=O)N1CC=C(c2c(C)n(Cc3ccccc3C)c3ccccc23)CC1`, the “% Inhibition” value stood at 92% and the Z score was -8.31.
With `CNC(=NCCCOc1cccc(OC)c1)NC`, the “% Inhibition” value is 38% and the Z score is given as -5.56.
In the case of `Cc1noc(C)c1CN1C(=O)[C@@H]2CC[C@H]1CN(C(=O)c1ccc(CO)o1)C2`, the “% Inhibition” value is listed as 5% and the Z score is reported as -0.97.
On to `O=S(=O)(c1ccccc1)c1ccc(NCc2ccco2)cc1`, for which the “% Inhibition” value was -19% and the Z score is recorded as 3.54.
Consider `CCc1nnc(CNC(=O)[C@H]2OCC(=O)N(CC)[C@@H]2c2ccccc2)o1`, for which the “% Inhibition” value is -2% and the Z score is recorded as 0.23.
On to `OC[C@H]1CCCCN1c1cc(NCc2ccc(Cl)cn2)ncn1`, for which the “% Inhibition” value is recorded as -7% and the Z score was 1.18.
Take `COCCC1(C(=O)NS(=O)(=O)c2cccnc2)CCC1`: the “% Inhibition” value is 29% and the Z score is listed as -3.77.
Consider `CC[C@@H](C)[C@@H]1C(=O)N[C@@H](Cc2c[nH]c3ccccc23)C(=O)N1C`, for which the “% Inhibition” value is -2% and the Z score is given as 0.19.
Consider `CCCn1nc2c(c(C(F)F)cc(=O)n2S(=O)(=O)c2cc(C)ccc2C)c1C`, for which the “% Inhibition” value worked out at 34% and the Z score is -3.8.
On to `O=C(NC1CC1)N1CCC[C@H]1C1CCC1`, for which the “% Inhibition” value stood at 17% and the Z score is on record as -2.16.
For `CN(C)Cc1cccc(C(=O)N2CCC[C@H](c3nccs3)C2)c1`, the “% Inhibition” value is recorded as -6% and the Z score is 0.93.
As for `O=C(NCc1noc([C@@H]2CCCO2)n1)c1ccc(O)cn1`, the “% Inhibition” value is given as -9% and the Z score was found to be 1.09.
The like results for `O=C(CCc1ccncc1)NC1CC(O)(C(F)(F)F)C1` (stereo not drawn) were, in that order, -2% and 0.3.
Consider `O=C(Cn1cnc2ccccc2c1=O)Nc1ccncc1`, for which the “% Inhibition” value is on record as -6% and the Z score stood at 0.69.
As for `Cc1c(-c2ccccc2)nn(C)c1NC(=O)c1cccn1C1CC1`, the “% Inhibition” value is given as -6% and the Z score is reported as 0.76.
Consider `COCCc1noc(CN2C[C@@H]3CC[C@H]2CN(C(=O)c2cccnc2)C3)n1`, for which the “% Inhibition” value is -4% and the Z score is listed as 0.75.
Take `CCc1cccc2c1NC(=O)[C@]21[C@@H]2C(=O)N(c3ccc(Cl)cc3)C(=O)[C@@H]2[C@@H]2CCCN21`: the “% Inhibition” value was 1% and the Z score is recorded as -0.14.
As for `O=C(Nc1ccc(N2CCCC2)c2ncccc12)[C@H]1CCOC1`, the “% Inhibition” value was 15% and the Z score is recorded as -1.88.
On to `CCn1nnc(C)c1CNC[C@]1(O)CCCC1(C)C`, for which the “% Inhibition” value was 0% and the Z score turned out to be 0.04.
Regarding `O=C(NC1CC1)N1CCN(S(=O)(=O)c2ccc(Br)cc2)CC1`, the “% Inhibition” value came out at 4% and the Z score was -0.41.
With `O=C1NC2(CCS(=O)(=O)CC2)C(=O)N1Cc1ccccc1Cl`, the “% Inhibition” value is given as -16% and the Z score is 2.94.
For `COc1cccc(CC(=O)Nc2cnns2)c1`, in that order: 3% and -0.32.
For the molecule `O=C(CN1C(=O)c2cc(Cl)c(Cl)cc2C1=O)N1CCOCC1`, the “% Inhibition” value was -13% and the Z score worked out at 1.97.
For `C[C@@H](CNCC1(S(C)(=O)=O)CCOCC1)c1cccc(Cl)c1`, the “% Inhibition” value is recorded as -4% and the Z score came out at 0.32.
Turning to `CC(C)(C)c1n[nH]c2c1[C@@H](c1ccnc3ccccc13)CC(=O)N2`, the “% Inhibition” value was -11% and the Z score is listed as 1.98.
As for `COCc1nc(C)cc(NC[C@H]2CCc3cccnc32)n1`, the “% Inhibition” value was -11% and the Z score stood at 1.47.
As to `O=C(Nc1ccc2ccc(Cl)cc2n1)C1(N2CCOCC2)CCC1`, the “% Inhibition” value is given as 3% and the Z score is recorded as -0.33.
On to `O=C(NC[C@@H]1COc2ccccc2C1)c1cccc(-n2cnnc2)n1`, for which the “% Inhibition” value is -2% and the Z score came out at 0.27.
For `Cc1noc(C)c1CN1CC[C@H](Nc2nc3ccccc3s2)[C@@H](O)C1`, in that order: 7% and -1.21.
As for `CC(=O)c1ccc(-c2nc(CC(=O)NC3CCCCC3)no2)cc1`, the “% Inhibition” value is -1% and the Z score was 0.08.
`Cn1cc(-c2nc(-c3cnn(CCF)c3)no2)c(C2CC2)n1`: the “% Inhibition” value was -4% and the Z score is listed as 0.41.
On to `O[C@@H]1CO[C@H]2[C@@H]1OC[C@@H]2n1nnnc1-c1ccc(-c2ccccc2)cc1`, for which the “% Inhibition” value is recorded as -6% and the Z score is on record as 0.75.
For the molecule `C[C@@H]1CN(c2noc(C3CC3)n2)CC[C@@]1(O)C1CCOCC1`, the “% Inhibition” value is recorded as -14% and the Z score is on record as 2.45.
The like results for `CCN1C[C@H](CN(C)C(=O)c2cc3ccccc3[nH]2)Oc2ccccc21` were, in that order, 3% and -0.43.
For `CCc1cc(C(=O)N2C[C@H]3CC[C@@H](C2)N(Cc2c(C)noc2C)C3=O)on1`, in that order: 4% and -0.51.
